Reference: PubChem BioAssay AID1347073 (National Center for Advancing Translational Sciences (NCATS), 2019)
About 200 (0.44%) of roughly 45,000 compounds were called active. Inconclusive results (about 7%) are left out. Calls come from the whole dose curve; as a rule, active = well fitted activation curve with a large enough effect; inconclusive = small, poorly fitted or top-dose-only effect; inactive = no such curve, though single readings can be large or run the other way. This is one part of the list.

assay: qHTS of TDP-43 Inhibitors: NCGC Sytravon Library Screen; details: yeast TDP-43 toxicity rescue, BacTiter-Glo growth, 24 h; series mostly up to 46.1 µM; growth rescue (activation): at the top concentration; note: 0% is about no effect; nearly all actives have a fitted effect of over 55% in size
Outline: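 TDP-43-expressing yeast, pregrown in raffinose, seeded at OD600 0.02 in galactose medium with compound for 24 hr at 30 deg C. Growth read by BacTiter-Glo luminescence, so rescue of toxicity appears as activation.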

Compound | growth rescue (activation)
COc1ccc(-c2cc(=O)[nH]c(=S)[nH]2)cc1 | inactive: 16.7%
CC1(C(=O)NS(=O)(=O)c2ccccc2)CCN1C(=O)Cc1cccc2ccccc12 (stereo not given) | inactive: -6.56%
Cc1ccc(S(=O)(=O)NC(=O)C2(C)CCN2C(=O)Cc2ccc(-c3ccccc3)cc2)cc1 (stereo not given) | inactive: 0.75%
CC(NC(=O)CCC(=O)N1CCN(S(=O)(=O)c2ccc(Cl)cc2)CC1)c1ccccc1 (stereo not given) | inactive: -40.3%
O=C(O)c1cccc(S(=O)(=O)Nc2ccc3[nH]c(=O)[nH]c3c2)c1 | inactive: -35.2%
CCC(CC)C(=O)NN(C(=O)c1ccncc1)C1CC(=O)N(c2ccccc2)C1=O (stereo not given) | inactive: 8.35%
Cc1ccc(-n2c(SCC(=O)Nc3ccc4cn[nH]c4c3)nnc2-c2ccco2)cc1 | inactive: -13%
Cc1ccsc1C(=O)OCc1nnc(-c2ccccc2)o1 | inactive: -3.73%
O=S(=O)(c1ccc(Br)cc1)N1CCCN(Cc2cccc(F)c2)CC1 | inactive: -19.3%
O=C(Nc1nnc([C@@H]2C[C@H](O)[C@@H](CO)O2)s1)Nc1ccccc1F | inactive: 0.846%
COC(=O)c1ccc(CNC(=O)COC(=O)CC23CC4CC(CC(Br)(C4)C2)C3)cc1 | inactive: 9.14%
CC1=C(c2ccc(C)cc2)[N+](=O)C(C)(C)N1[O-] | inactive: 1.28%
Cc1c(NC(=O)c2csc3c2CCCC3)c(=O)n(-c2ccccc2)n1C | inactive: -2.42%
Cc1cccc(C(O)c2ncc(-c3ccccc3)[nH]2)c1C (stereo not given) | inactive: 0.291%
CC(C)NS(=O)(=O)c1ccc(OCC(=O)N2CCN(c3ccccc3)CC2)cc1 | inactive: 9.54%
Cc1ccc(S(=O)(=O)N2CCN(C(=O)CN3CCOCC3)C2)cc1 | inactive: 21.6%
O=C(C1COc2ccccc2O1)N1CCN(Cc2ccc3c(c2)OCO3)CC1 (stereo not given) | inactive: -9.37%
OC(c1ccccc1)C(CN1CCOCC1)c1ccccc1 (stereo not given) | inactive: 22.2%
Cn1ncc([N+](=O)[O-])c1C(=O)Nc1nc2ccccc2n1CCN1CCCCC1 | inactive: 12.6%
O=c1c2ccccc2nc2n1CC/C2=C\N1CCN(c2ccc([N+](=O)[O-])cc2)CC1 | inactive: -1.21%
COc1ccc(S(=O)(=O)NCc2cccnc2)c2ccccc12 | inactive: 1.22%
CCN(CC)S(=O)(=O)c1ccc(Cl)c(NC2=NCCCCC2)c1 | inactive: 9.88%
CC(=O)NC(Cc1ccccc1)C(=O)OCC(=O)c1ccc(Br)cc1 (stereo not given) | inactive: 6.53%
O=C(CCC1CCCC1)Nc1nnc(-c2ccc3c(c2)OCO3)s1 | inactive: 8.38%
COC(=O)c1ccc(NC(=O)COC(=O)C2CC(=O)N(Cc3ccccc3)C2)cc1 (stereo not given) | inactive: -6.09%
O=C(COC(=O)c1ccc(O)cc1)Nc1ccc(OC(F)F)cc1 | inactive: -2.57%
CS(=O)(=O)N(Cc1ccc(C(=O)N2CCc3ccccc3C2)cc1)c1ccccc1 | inactive: -0.459%

Compound | growth rescue (activation)
O=C(Nc1ccc(C(=O)O)cc1)/C(=C\c1ccccc1)NC(=O)c1ccco1 | inactive: 8.39%
CCCCNCCOCCOc1ccc(F)cc1 | inactive: -3.39%
CCc1nc2ccc(C(=O)NCCCn3ccnc3)cn2c1N(CC)C(=O)NCCc1ccccc1 | inactive: -1.31%
O=C(Nc1ccn(Cc2ccccc2)n1)c1cccc(F)c1 | inactive: 26%
COc1ccc(N(CC(=O)Nc2ccc3c(c2)OCO3)S(=O)(=O)c2ccc(C)cc2)cc1OC | inactive: 19.5%
COc1ccc(C(=O)NNC(=O)CSc2nnc3ccccn23)cc1OC | inactive: -5.48%
COc1cc2c(cc1N/C=C(\C#N)c1nc(-c3ccc(F)cc3)cs1)oc1ccccc12 | inactive: -7.16%
COC(=O)c1cc(NS(=O)(=O)c2ccc(NCc3cccnc3)c(N)c2)cc(C(=O)OC)c1 | inactive: 2.42%
CCOc1ccc(OCCCCn2cnc3ccccc3c2=O)cc1 | inactive: 26.6%
O=C(NNC(=O)C1CCC(C(=O)NNC(=O)c2cccs2)CC1)c1cccs1 (stereo not given) | inactive: -6.42%
Cc1nc2ccc(C(=O)N(C)Cc3ccccc3)cn2c1N(C)C(=O)CCc1ccccc1 | inactive: -7.9%
CCC(=O)Nc1ccc2nc(SCc3ccccc3)sc2c1 | inactive: 26.3%
CSc1ccccc1C(=O)C1CCCN(S(=O)(=O)N(C)C)C1 (stereo not given) | inactive: 16%
COc1ccccc1CNC(=O)Cc1ccc(OC)c(OC)c1 | inactive: 0.8%
CC(=O)Nc1ccc2oc(C)nc2c1 | inactive: 5.23%
Cc1ccc(-c2cc(C(F)F)n3ncc(C(=O)N4CCCCC4c4cccnc4)c3n2)cc1 (stereo not given) | inactive: 1.87%
COc1ccc(-c2csc(C(C#N)=C(O)CSc3nccn3C)n2)cc1OC | inactive: -14.4%
Cc1cc(NC(=O)CCC(=O)N(CC(=O)NCC2CCCO2)c2ccc(F)c(Cl)c2)no1 (stereo not given) | inactive: 3.79%
O=C(O)c1ccccc1NS(=O)(=O)c1cccc(-n2sc3ccccc3c2=O)c1 | inactive: -1.7%
Cc1ccc(C(=O)N/N=C\c2cc3c(cc2Br)OCO3)cn1 | inactive: 1.84%
CC(C)C(C(=O)NC1CCCC1)N(CC1CCCO1)C(=O)CNS(=O)(=O)c1ccccc1 (stereo not given) | inactive: -5.07%
COc1cc(CN(C)Cc2cc(=O)oc3cc(C)c(Cl)cc23)ccc1OC(F)F | inactive: 23.2%
Cc1ccc2cc(CN(C(=O)c3cccs3)c3ccccc3)c(=O)[nH]c2c1 | inactive: 0.577%
O=S(=O)(c1cc(C(F)(F)F)ccc1Cl)N1CCN(c2ncnc3ccccc23)CC1 | inactive: 12.8%
O=C(COC(=O)c1ccc[n+]([O-])c1)Nc1cc([N+](=O)[O-])ccc1Cl | inactive: 10.1%
O=C(COC(=O)CNC(=O)C1CCCCC1)Nc1ccccc1 | inactive: -6.65%
Cc1ccc(C)n1-c1ccc(C(=O)NCc2ccncc2)cc1 | inactive: -13.8%

Compound | growth rescue (activation)
NS(=O)(=O)c1ccc(NC(=O)COC(=O)c2cnc(Cl)c(Cl)c2)cc1 | inactive: 22.7%
CCOC(=O)NC1(C(F)(F)F)NC(=O)N(c2cccc(C(F)(F)F)c2)C1=O (stereo not given) | inactive: 6.46%
C=CC[n+]1c(-c2ccc(Cl)cc2Cl)csc1Nc1c(C)n(C)n(-c2ccccc2)c1=O | inactive: -10.6%
CCC(=O)N(C)CCc1cc2c(c(OC)c1/C=N/NS(=O)(=O)c1ccc(C)cc1)OCO2 | inactive: 19.7%
CCC1CCCCN1C(=O)c1cccc(S(=O)(=O)Nc2cc(C(F)(F)F)ccc2Cl)c1 (stereo not given) | inactive: 1.99%
O=C(O)C1CCCN(S(=O)(=O)c2ccc(F)cc2)C1 (stereo not given) | inactive: -24.5%
Cc1ccc(F)cc1C(=O)N1CCOCC1c1cc(C(=O)Nc2ccccc2)no1 (stereo not given) | inactive: 17.7%
COc1ccc(OC)c(C(=O)COC(=O)c2[nH]c(C)c(C(C)=O)c2C)c1 | inactive: 24.9%
Cc1ccc(S(=O)(=O)NCC(=O)OCc2ccccc2)cc1 | inactive: 18.9%
N#Cc1cccc(NC(=O)Cc2ccccc2)c1 | inactive: 27.9%
COc1cccc(C(CNc2ccc(S(=O)(=O)N3CCN(C)CC3)cc2[N+](=O)[O-])N(C)C)c1 (stereo not given) | inactive: 7.12%
CC1CN(C(=O)CCC(=O)NCCCN2CCC(Cc3ccccc3)CC2)c2cc(Cl)ccc2O1 (stereo not given) | inactive: -10.9%
COc1cc(CNn2cn[nH]c2=S)ccc1OCC(=O)NC(C)(C)C | inactive: -0.189%
COc1ccc(CN2CCN(Cc3csc(C(C)=O)c3)CC2CCO)c(C)c1C (stereo not given) | inactive: 13.3%
CCN(c1ccccc1)S(=O)(=O)c1cc(C(=O)NCc2ccccn2)ccc1C | inactive: 12.6%
CCN(CC)S(=O)(=O)c1ccc(/C=C/C(=O)OCC#N)cc1 | inactive: 13.7%
Cc1cccc(OCCOc2ccccc2C=C(C#N)C#N)c1 | inactive: -30.7%
COc1ccc(/C=C2/C(=O)OCc3cc(OC)c(OC)cc32)cc1 | inactive: 33.2%
CC(=O)Nc1ccccc1OCC(=O)NCCc1ccc(Cl)cc1Cl | inactive: 7.13%
O=C(NNC(=O)c1ccncc1)Nc1ccc([N+](=O)[O-])cc1 | inactive: 17.3%
COc1ccnc(Oc2cc(Cl)cc(Cl)c2)c1C#N | inactive: 18.2%
CN(C(=O)c1cccc(C#N)c1)c1nnc(-c2ccncc2)s1 | inactive: -3.3%
Cc1ccc(CSCCNS(=O)(=O)c2ccccc2)cc1 | inactive: 28.3%
COc1cc(NC(=O)C/C(C)=N/NC(=O)c2cccs2)c(OC)cc1Cl | inactive: 15.2%
Cc1ccc(Nc2cc(C)nc(N3CCOCC3)n2)c(C)c1 | inactive: 4.42%
Cc1ccc(-c2c(C)sc3ncn(CC(=O)N4CCOCC4)c(=O)c23)cc1C | inactive: 12.1%
CCOC(=O)C1CCN(C(=O)CC2(CC(=O)O)CCCC2)CC1 | inactive: 5.2%

Compound | growth rescue (activation)
COc1cc(/C=C(/NC(C)=O)C(=O)O)cc(Cl)c1OCc1ccc(Br)cc1 | inactive: 7.59%
O=C1c2ccc([N+](=O)[O-])cc2NC(c2ccco2)N1/N=C/c1ccco1 (stereo not given) | inactive: 17.1%
Cc1ccc(NC(=O)CC(C)c2ccccc2)cc1S(=O)(=O)N1CCOCC1 (stereo not given) | inactive: 14.3%
CCCCSc1nnc2n(CCc3ccccc3)c(=O)c3c4c(sc3n12)COC(C)(C)C4 | inactive: -14.5%
COc1ccc(NC(=S)N2CCN(c3ncccn3)CC2)cc1 | inactive: 18.3%
COC(=O)c1cc(C(=O)Nc2ccc(Cl)cn2)cc([N+](=O)[O-])c1 | inactive: -0.113%
COc1ccc(/C=C/C(=O)NC2=NCCS2)cc1OC | inactive: 14%
O=C(Nc1ccnn1C1CCN(CC(O)CO)CC1)C1CCCC1 (stereo not given) | inactive: 16%
O=C1CN(C(=O)COC(=O)CCc2ccccc2)c2ccccc2N1 | inactive: 9.59%
CC(C)CCn1nnnc1CN1CCN(C(=O)c2ccco2)CC1 | inactive: -15.9%
O=C(CN(C(=O)c1csnn1)c1ccccc1F)NC1CCCCC1 | inactive: 7.71%
O=C(O)c1csc(-c2cccs2)n1 | inactive: 3%
Cc1c(NS(=O)(=O)c2cccc(C(=O)N3CCC(C)CC3)c2)c(=O)n(-c2ccccc2)n1C | inactive: -2.13%
CCNC(=O)COC(=O)/C=C/c1cccc(F)c1 | inactive: 11.5%
Cn1ccsc1=NC(=O)c1ccc(S(=O)(=O)C(F)F)cc1 | inactive: -3.28%
Cc1ccc(O)c(-c2cc(-c3ccccc3C)[nH]n2)c1 | inactive: -91.3%
Cc1ccc(NC(=O)CCC(=O)OCC(=O)c2ccc(Oc3ccc([N+](=O)[O-])cc3)cc2)cc1 | inactive: 17.3%
CCN(C(=O)COc1cccc(-n2cnnn2)c1)C1CCS(=O)(=O)C1 (stereo not given) | inactive: 4.41%
CN(C)S(=O)(=O)c1cc(NC(=O)CN2CCc3ccccc32)ccc1Cl | inactive: 3.52%
COc1ccc(N(CC(=O)NCCc2ccccc2)C(=O)CCC(=O)Nc2nccs2)cc1 | inactive: 0.69%
COCCNCc1nc2sc(C)c(-c3ccccc3)c2c(=O)[nH]1 | inactive: -2.33%
CSCCC(NC(=O)c1ccc(Cl)cc1Cl)C(=O)N(C)Cc1nc2ccccc2c(=O)[nH]1 (stereo not given) | inactive: -17.8%
OCCCc1n[nH]c(=S)n1-c1ccccc1 | inactive: -4.04%
CCc1nnc(NC(=O)c2ccc(-c3ccc([N+](=O)[O-])cc3Cl)o2)s1 | inactive: 3.57%
